In this assay the test system is NCI-H322M lung. Briefly: NCI-60 cell line screen, 48 h.

This is an account of results in PubChem BioAssay (NCI).

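A five-concentration, 48-hour dose response in 96-well plates underlies each endpoint, interpolated linearly between surrounding concentrations. GI50 is the concentration that inhibits growth by half. TGI denotes the concentration required for complete inhibition of growth.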

Regarding `O=C(NNc1nc2cc(F)ccc2n2c(CN3CCCCC3)ccc12)c1cnccn1`, the GI50 is 0.528 µM and the TGI was 8.59 µM.
